A collection of fitness landscapes (doi:10.1016/j.celrep.2020.107928)
Over roughly 81,000 sequences, “one-hybrid fitness for binding NBS DNA” has its median near -0.1; the highest 2% begin near 0.36. This is one part of the list.

B1: Caulobacter ParB omega fusion; a variant is named by its letters at X, in order, B8GW30 (parent)
chain: MESVVVGEPGMSEGRRGLGRGLSALLGEVDAAPAQAPGEQLGGSREAPIEILQRNPDQPRRTFREEDLEDLSNSIREKGVLQPILVRPSPDTAGEYQIVAGERAWRAAQRAGLKTVPIMVRELDDLAVLEIGIIENVQRADLNVLEEALSYKVLMEKFERTQENIAQTIGKSXSHVANXMRLLXLPDEVQSYLVSGELTAXHARAIAAAADPVALAKQIIEGGLSVRETEALARKAPNLSAGKSKGGRPPRVKDTDTQALESDLSSVLGLDVSIDHRGSTGTLTITYATLEQLDDLCNRLTRGI

Variants of: B1
Test: one-hybrid fitness for binding NBS DNA (the Noc-binding site; scaled: cognate 1, non-cognate 0); higher = stronger binding
Conditions: with NBS DNA site
Summary of the method: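 Selection: bacterial one-hybrid in E. coli USO, HIS3 reporter with the site 19 bp from the promoter, 48 hours at 37°C on M9-minus-histidine plus 0.1 mM IPTG and 5 mM 3-AT. Libraries were Caulobacter ParB with four randomised specificity codons, sequenced on Illumina before and after selection. Fitness is the rescaled log change in variant-to-wild-type read ratio, anchored to the cognate and non-cognate sites.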

Variant	one-hybrid fitness for binding NBS DNA
RWFL	≤ 0.2
HSDT	≤ 0.2
QWDK	≤ 0.2
THPE	≤ 0.2
PFFR	≤ 0.2
TGIA	≤ 0.2
HEKC	≤ 0.2
HQGC	≤ 0.2
RVTF	≤ 0.2
PSQC	≤ 0.2
QMFE	≤ 0.2
FLPY	≤ 0.2
HFRW	≤ 0.2
YGTG	≤ 0.2
VSKA	≤ 0.2
QNEY	≤ 0.2
HCID	≤ 0.2
YNGR	≤ 0.2
ICGG	≤ 0.2
QDSQ	≤ 0.2
SEPV	≤ 0.2
SEQR	≤ 0.2
PQNC	≤ 0.2
FVKT	≤ 0.2
VACC	≤ 0.2
LICT	≤ 0.2

Variant	one-hybrid fitness for binding NBS DNA
WTVG	≤ 0.2
QWWL	≤ 0.2
QMQS	0.394
VHRG	≤ 0.2
HSVS	≤ 0.2
FAKG	≤ 0.2
RKWG	≤ 0.2
RCLQ	≤ 0.2
YNIR	≤ 0.2
KEKV	≤ 0.2
MDIE	≤ 0.2
QYDT	0.272
TRCF	≤ 0.2
VFVG	≤ 0.2
PTVL	≤ 0.2
RPNM	≤ 0.2
LHMY	≤ 0.2
GQRY	≤ 0.2
RVGY	≤ 0.2
EKIT	≤ 0.2
SPGM	≤ 0.2
QTSS	0.522
SVRG	≤ 0.2
AHAG	≤ 0.2
VFFS	≤ 0.2
CFTG	≤ 0.2

Variant	one-hybrid fitness for binding NBS DNA
CTLR	≤ 0.2
CQIC	≤ 0.2
CENL	≤ 0.2
SCYT	≤ 0.2
CKHS	≤ 0.2
SIFM	≤ 0.2
GPMG	≤ 0.2
GSPW	≤ 0.2
ADSI	≤ 0.2
QAGE	≤ 0.2
FMNF	≤ 0.2
ALPC	≤ 0.2
AHIL	≤ 0.2
RQEH	≤ 0.2
TKQR	≤ 0.2
LTLS	≤ 0.2
AGPV	≤ 0.2
ESHV	≤ 0.2
HAPH	≤ 0.2
HFGL	≤ 0.2
AGWP	≤ 0.2
QLEI	≤ 0.2
AAAN	≤ 0.2
MGFR	≤ 0.2
GRYR	≤ 0.2
RRIC	0.399

Variant	one-hybrid fitness for binding NBS DNA
EDHT	≤ 0.2
IVVL	≤ 0.2
DTHY	≤ 0.2
PRIQ	≤ 0.2
QKTI	≤ 0.2
AYPI	≤ 0.2
RDNT	≤ 0.2
VEHV	≤ 0.2
FMKR	0.226
HDQG	≤ 0.2
KKRV	≤ 0.2
HAGW	≤ 0.2
CGWR	≤ 0.2
KRIA	≤ 0.2
NVHW	≤ 0.2
RILV	≤ 0.2
STYP	≤ 0.2
KVMS	≤ 0.2
TDKS	≤ 0.2
PASN	≤ 0.2
SEFS	≤ 0.2
QILH	≤ 0.2
FPAT	≤ 0.2
PFWN	≤ 0.2
QQRN	0.466
YTLT	≤ 0.2

Variant	one-hybrid fitness for binding NBS DNA
HASE	≤ 0.2
LPFI	≤ 0.2
DWNA	≤ 0.2
PYGR	≤ 0.2
APLQ	≤ 0.2
NALN	≤ 0.2
DLCC	≤ 0.2
TLAI	≤ 0.2
RPLC	≤ 0.2
YNRC	≤ 0.2
RNMI	≤ 0.2
RNGL	≤ 0.2
VRAE	≤ 0.2
HPED	≤ 0.2
KGWT	≤ 0.2
RIVP	≤ 0.2
ELDV	≤ 0.2
QGDI	≤ 0.2
RPSP	≤ 0.2
DVVT	≤ 0.2
IPVI	≤ 0.2
FAPT	≤ 0.2
PGPS	≤ 0.2
PPVL	≤ 0.2
LHAC	≤ 0.2
TRCH	≤ 0.2

Variant	one-hybrid fitness for binding NBS DNA
SICT	≤ 0.2
RVMG	≤ 0.2
NVYF	≤ 0.2
FVEG	≤ 0.2
APWS	≤ 0.2
CPRE	≤ 0.2
HCRY	≤ 0.2
SQDC	≤ 0.2
DLLA	≤ 0.2
QTCF	≤ 0.2
MAEN	≤ 0.2
KISE	≤ 0.2
SGMW	≤ 0.2
IRYW	≤ 0.2
NLSK	≤ 0.2
RDDE	≤ 0.2
LDEG	≤ 0.2
ADLA	≤ 0.2
DATC	≤ 0.2
LQRA	≤ 0.2
RKKS	0.653
PNFS	≤ 0.2
TMHS	≤ 0.2
